The supplement of paper PMC7826260
Some of the results follow. Each Rep nickase domain was tested in vitro on the same pool of single strands (3 µM enzyme, 1 h, 37 °C); shown is the middle of each 90-letter strand. The score is log2 (uncut reads / reads without enzyme); more negative means more cut, near 0 not cut, and no call is made. Shares of all reads are compared; values above 0 arise when much of the pool is cut.

Legend:
Experiment in all cases: uncleaved DNA left, log2 of reads against the no-enzyme library (log2 ratio); higher = less cleavage (more negative = more Rep cleavage of the k-mer); sequences stand for … in CTCGTCCG…ACCGGAGA
[1] = test system: T1, Rep nickase domain of Muscovy duck circovirus
T1 sequence (Rep 1-111, printed without the tag): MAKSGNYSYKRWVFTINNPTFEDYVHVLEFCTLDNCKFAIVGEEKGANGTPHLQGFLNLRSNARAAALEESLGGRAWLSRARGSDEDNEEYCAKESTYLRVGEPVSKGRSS
Description: (§1)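 A pool of 90-nt single-stranded DNAs with seven random bases just before the constant AC of the nick site (name = the seven bases) was cut by 3 µM recombinant His6-SUMO-tagged Rep nickase domain (300 nM DNA, 50 mM HEPES pH 8.0, 50 mM NaCl, 1 mM MnCl2, 1 h, 37 °C, three replicates). Uncut DNA was amplified and sequenced.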

[2] = test system: T2, Rep nickase domain of banana bunchy top virus
T2 sequence (Rep 1-94, printed without the tag): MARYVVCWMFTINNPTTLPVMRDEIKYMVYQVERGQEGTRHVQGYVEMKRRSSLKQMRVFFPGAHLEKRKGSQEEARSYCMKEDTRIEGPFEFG
Description: as §1

[3] = test system: T3, Rep nickase domain of cabbage leaf curl virus
T3 sequence (Rep 1-116, printed without the tag): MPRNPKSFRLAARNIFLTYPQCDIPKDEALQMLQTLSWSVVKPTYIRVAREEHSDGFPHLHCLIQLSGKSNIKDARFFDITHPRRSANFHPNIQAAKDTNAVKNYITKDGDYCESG
Description: as §1

[4] = test system: T4, Rep nickase domain of chickpea chlorotic dwarf virus
T4 sequence (Rep 1-124, printed without the tag): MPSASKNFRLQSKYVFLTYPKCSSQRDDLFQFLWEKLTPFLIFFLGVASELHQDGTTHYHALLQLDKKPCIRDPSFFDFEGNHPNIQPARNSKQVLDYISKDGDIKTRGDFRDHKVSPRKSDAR
Description: as §1

[5] = test system: T5, Rep nickase domain of faba bean necrotic yellows virus
T5 sequence (Rep 1-98, printed without the tag): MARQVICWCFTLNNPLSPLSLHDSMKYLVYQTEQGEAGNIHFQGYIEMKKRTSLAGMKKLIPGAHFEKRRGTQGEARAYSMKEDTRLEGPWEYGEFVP
Description: as §1

[6] = test system: T6, Rep nickase domain of maize striate mosaic virus
T6 sequence (Rep 1-117, printed without the tag): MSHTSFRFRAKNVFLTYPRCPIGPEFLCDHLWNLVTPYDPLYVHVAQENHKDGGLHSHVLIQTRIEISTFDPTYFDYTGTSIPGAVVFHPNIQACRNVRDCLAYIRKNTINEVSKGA
Description: as §1

[7] = test system: T7, Rep nickase domain of porcine circovirus 2
T7 sequence (Rep 2-116, printed without the tag): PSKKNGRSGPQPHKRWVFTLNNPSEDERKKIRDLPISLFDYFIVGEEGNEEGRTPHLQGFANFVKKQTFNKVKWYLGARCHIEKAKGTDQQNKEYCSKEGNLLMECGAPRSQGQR
Description: as §1

[8] = test system: T8, Rep nickase domain of tomato golden mosaic virus
T8 sequence (Rep 1-124, printed without the tag): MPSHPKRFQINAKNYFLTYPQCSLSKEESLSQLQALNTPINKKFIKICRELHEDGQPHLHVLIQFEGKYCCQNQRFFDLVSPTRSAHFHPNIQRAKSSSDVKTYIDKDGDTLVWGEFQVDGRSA
Description: as §1

[9] = test system: T9, Rep nickase domain of tomato yellow leaf curl virus
T9 sequence (Rep 1-136, printed without the tag): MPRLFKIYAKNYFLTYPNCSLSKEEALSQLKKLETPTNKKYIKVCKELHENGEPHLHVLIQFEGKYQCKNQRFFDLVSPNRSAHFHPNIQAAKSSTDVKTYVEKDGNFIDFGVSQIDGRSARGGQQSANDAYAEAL
Description: as §1

[10] = test system: T10, Rep nickase domain of wheat dwarf virus
T10 sequence (Rep 1-137, printed without the tag): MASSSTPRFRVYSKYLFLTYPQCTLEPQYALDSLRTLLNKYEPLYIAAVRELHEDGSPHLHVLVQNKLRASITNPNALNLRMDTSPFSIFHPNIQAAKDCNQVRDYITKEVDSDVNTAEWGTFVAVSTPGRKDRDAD
Description: as §1

Sequence	uncleaved DNA left (log2) [1]	uncleaved DNA left (log2) [2]	uncleaved DNA left (log2) [3]	uncleaved DNA left (log2) [4]	uncleaved DNA left (log2) [5]	uncleaved DNA left (log2) [6]	uncleaved DNA left (log2) [7]	uncleaved DNA left (log2) [8]	uncleaved DNA left (log2) [9]	uncleaved DNA left (log2) [10]
TTCGCAA	0.0429	0.0725	0.0585	-0.258	-0.0833	-0.68	-0.000626	-0.0568	0.051	-0.039
CGCAATA	0.0193	-0.0356	-0.16	-0.564	0.0417	-0.35	-0.126	-0.024	0.0306	0.0708
CCCTGGG	0.0591	0.0283	-0.415	-0.5	-0.0819	-0.893	0.173	-0.0216	-0.0345	0.0525
GGAGTGT	0.159	0.0032	0.57	1.24	0.0564	1.7	0.157	0.105	0.0948	0.0189
TTTAGAA	0.0904	0.0465	0.294	0.226	0.0775	0.169	0.104	0.119	0.123	0.137
CACTGCT	-1.52	-1.79	-0.865	-1.65	-0.0987	-1.22	-3.61	-0.227	-0.0138	-0.207
ATACACA	-0.0708	-0.0556	-0.138	-0.913	0.011	-0.51	0.0491	0.132	0.0122	0.00976
GGTCCCA	-0.013	0.143	0.475	0.998	-0.0186	1.71	0.0619	0.0751	0.0754	0.131
GACAGTG	0.0513	-0.0564	-0.516	-0.396	0.0406	-0.812	0.231	0.0625	0.0975	-0.0328
GAATTGC	0.0749	-0.00467	-0.695	0.133	0.037	-0.854	0.177	-0.0248	0.0898	-0.0354
CGTGCCT	-0.103	-0.0675	-0.154	-0.748	-0.146	-0.188	-0.288	-0.09	-0.032	-0.108
GTATAGC	0.0599	0.152	0.217	0.544	0.101	0.043	0.158	0.047	0.0927	0.00245
GATAAAA	0.0719	0.107	0.333	0.622	0.00971	0.747	0.168	0.0382	0.038	0.104
CTTTTTC	-0.00816	0.0174	0.00291	-0.253	-0.029	-0.848	0.0332	-0.0507	0.019	-0.00555
ACTAATA	-0.171	-0.056	-0.321	-1.58	-0.0135	-0.753	-0.174	-0.0573	-0.079	-0.0756
GTATGGA	-0.0324	0.0958	0.296	0.666	-0.0817	0.722	0.0533	0.0634	-0.0104	0.0597
GAAAGCC	-0.0544	-0.0417	-0.148	-0.216	-0.0235	-0.361	0.0895	-0.0983	-0.00552	-0.0373
GACCAGG	-0.17	-0.0193	0.0693	0.827	-0.0255	0.248	0.00653	-0.0597	-0.0505	0.0637
GAATGAA	0.0262	-0.0224	0.184	0.312	0.024	0.49	-0.507	0.0597	-0.0291	0.0817
ATCATAG	0.0266	0.075	-0.662	-0.163	0.0532	-1.14	0.102	0.0113	0.0919	-0.0831

Sequence	uncleaved DNA left (log2) [1]	uncleaved DNA left (log2) [2]	uncleaved DNA left (log2) [3]	uncleaved DNA left (log2) [4]	uncleaved DNA left (log2) [5]	uncleaved DNA left (log2) [6]	uncleaved DNA left (log2) [7]	uncleaved DNA left (log2) [8]	uncleaved DNA left (log2) [9]	uncleaved DNA left (log2) [10]
CAGACGA	0.141	0.0959	0.00906	0.211	0.0939	-0.568	0.161	0.123	0.0659	-0.0159
AGATCGA	0.0158	-0.0437	-0.232	-0.208	-0.116	-0.99	0.0291	-0.177	-0.0945	0.000948
CATCTAG	0.0464	0.113	-0.625	-0.3	0.0296	-1.14	0.206	0.0869	0.0941	-0.0247
TTCCCGT	-0.00985	-0.0877	-0.195	-0.807	-0.132	-0.765	-0.0889	-0.00602	-0.0551	-0.146
ACATGCC	-0.0942	-0.0293	-0.644	-0.517	-0.0267	-1.1	0.117	-0.043	0.0972	0.0079
TTGATAC	-0.229	-0.0639	-0.0513	-0.791	0.00735	-0.602	-0.3	-0.0131	-0.0232	-0.0846
CCTACTT	-0.0728	-0.0983	-0.258	-2.68	-0.0304	-0.498	-0.685	-0.104	-0.083	-0.175
TACCAGC	0.167	0.0231	-0.203	-0.696	0.0377	-0.911	-0.26	0.000808	-0.00331	0.0403
TGAGAAC	0.0768	0.0258	0.393	0.482	0.053	0.465	0.189	-0.0167	0.0916	0.118
TCTCCTA	-0.111	-0.0301	0.0194	-0.508	0.0156	0.238	-0.127	-0.0778	-0.0184	-0.026
CGGCAAC	0.0183	-0.0374	0.0958	0.225	-0.0191	0.467	0.0316	-0.0797	-0.042	0.062
AACTTCT	-3.51	-2.64	-0.935	-3.01	0.00514	-1.11	-3.75	-0.0499	0.0664	-0.175
CGTGTGT	-0.101	-0.153	-0.441	-0.585	0.0514	-0.77	-0.118	-0.125	-0.0609	-0.195
TGCCACC	-0.0304	0.00663	0.0941	0.138	-0.0192	0.156	-0.259	-0.221	0.0291	0.0049
CCCGCGT	-0.24	-0.114	-0.755	-0.548	0.0156	-0.715	0.265	0.0107	0.00798	-0.15
ACGAGAG	0.212	0.155	-0.559	0.0469	0.169	-0.854	0.343	0.0901	0.154	0.097
ACTACCG	-0.0617	0.0999	-0.866	-0.738	-0.0539	-0.912	0.0783	0.00259	-0.00589	-0.0594
GCCCCTA	0.0652	0.0914	0.0364	-0.133	-0.0593	0.321	0.0162	-0.0277	-0.0152	-0.045
CATGGCC	0.0163	0.0488	-0.478	-0.291	-0.00188	-0.91	-0.0234	-0.091	0.101	-0.0846
TACGACA	0.057	-0.0522	0.0571	-1.82	-0.1	0.354	-0.866	-0.0123	0.0464	0.0763

Sequence	uncleaved DNA left (log2) [1]	uncleaved DNA left (log2) [2]	uncleaved DNA left (log2) [3]	uncleaved DNA left (log2) [4]	uncleaved DNA left (log2) [5]	uncleaved DNA left (log2) [6]	uncleaved DNA left (log2) [7]	uncleaved DNA left (log2) [8]	uncleaved DNA left (log2) [9]	uncleaved DNA left (log2) [10]
GTAATGT	-0.0284	0.00451	0.312	0.751	-0.0457	1.52	0.129	0.0512	-0.0119	-0.0283
TCAGTGG	0.0197	-0.154	-0.126	-0.0314	0.00516	-0.592	0.165	-0.0479	-0.0454	-0.0325
CGTACTC	-0.0255	-0.0673	-0.00365	0.0176	-0.0725	0.382	-0.0627	-0.265	-0.0524	0.0844
TTTTTCC	0.0433	-0.124	0.136	-0.245	-0.00242	-0.347	-0.0745	-0.171	-0.127	0.0396
CACTGTT	-3.23	-3.02	-1.98	-3	-0.605	0.147	-3.63	-0.494	0.0225	-0.243
TAGCGTA	-0.0757	-0.101	-0.426	-1.36	0.0377	-1.01	-0.402	0.0932	0.0728	0.00298
TAGTGGG	-0.141	-0.127	-0.552	-0.744	-0.0208	-1.08	-0.152	-0.0616	-0.0105	-0.078
GAGAATA	0.125	0.191	0.332	0.0317	0.0582	1.44	-0.67	0.124	0.203	0.319
GCTTCCA	-0.095	0.0711	0.185	0.0858	-0.153	0.49	-0.017	0.000458	0.0625	0.0143
CGTAGTG	0.0618	0.0757	-0.196	0.119	0.142	-0.203	0.195	0.0532	0.0609	0.123
AGATTCG	0.125	0.0714	-0.798	0.243	0.134	-0.941	0.251	0.074	0.207	0.0828
AGGGGGA	0.0439	0.0354	0.313	0.927	0.0291	1.21	0.185	0.0863	-0.122	0.0691
GATTCTA	-0.248	-0.0757	0.322	-0.211	0.08	1.21	-0.492	0.0202	0.0335	0.0413
GCACATG	-0.0712	0.00261	-0.503	-0.0851	-0.14	-0.581	0.0277	-0.0818	-0.0425	0.0105
CAAAGTC	0.101	0.0413	-0.803	-1.02	0.0126	-1.06	0.0447	-0.0352	-0.0229	-0.169
ATGGGAT	0.0442	-0.00462	0.167	1.55	0.057	1.85	0.144	0.0725	-0.111	-0.0455
AACGAGT	0.107	0.0953	0.0366	0.00334	0.113	0.157	0.029	0.221	-0.0066	0.0886
AAGAACG	0.0727	0.0668	-0.707	-0.443	0.106	-1.07	0.289	0.0476	0.125	0.0151
TAATCCC	-0.467	-0.0524	-3.44	-3.19	-0.0186	-2.66	-0.853	-3.49	-0.118	-3.32
TTTGATT	-0.416	-0.117	-0.17	-2.27	-0.057	-0.59	-2.03	-0.0711	-0.0027	-0.18
